Two molecules from patent US20250320305A1 can be followed below.

In assay [1] the target is human CD40 expressed on cells (human), P25942. In words: flow cytometry, primary human B cells. A general note: Flow cytometry measures light scatter and fluorescence of single cells or particles in a stream.
Assay [2] addresses human Fibroblast Activation Protein (FAP) expressed on cells (human), Q12884. As to the kind of experiment: flow cytometry, NIH/3T3-huFAP cells.

B1: P1AE2424, CD40 (P1AE0817) x FAP (P1AE1689) (4+1) with C-terminal crossfab fusion (bispecific antibody, human IgG1, kappa)
light 1: QVQLVQSGAEVKKPGASVKVSCKASGYTLTDYNMDWVRQAPGQGLEWIGDIYPNTGGTIYNQKFKGRVTMTIDTSTSTVYMELSSLRSEDTAVYYCTRFRGIHYAMDYWGQGTTVTVSSASVAAPSVFIFPPSDEQLKSGTASVVCLLNNFYPREAKVQWKVDNALQSGNSQESVTEQDSKDSTYSLSSTLTLSKADYEKHKVYACEVTHQGLSSPVTKSFNRGEC
light 2: DIVMTQTPLSLSVTPGQPASISCRSSQSLVHSNGNTFLHWYLQKPGQSPQLLIYTVSNRFSGVPDRFSGSGSGTDFTLKISRVEAEDVGVYFCSQTTHVPWTFGGGTKVEIKRTVAAPSVFIFPPSDRKLKSGTASVVCLLNNFYPREAKVQWKVDNALQSGNSQESVTEQDSKDSTYSLSSTLTLSKADYEKHKVYACEVTHQGLSSPVTKSFNRGEC
heavy 1: QVQLVQSGAEVKKPGASVKVSCKASGYSFTGYYIHWVRQAPGQSLEWMGRVIPNAGGTSYNQKFKGRVTLTVDKSISTAYMELSRLRSDDTAVYYCAREGIYWWGQGTTVTVSSASTKGPSVFPLAPSSKSTSGGTAALGCLVEDYFPEPVTVSWNSGALTSGVHTFPAVLQSSGLYSLSSVVTVPSSSLGTQTYICNVNHKPSNTKVDEKVEPKSCDGGGGSGGGGSQVQLVQSGAEVKKPGASVKVSCKASGYSFTGYYIHWVRQAPGQSLEWMGRVIPNAGGTSYNQKFKGRVTLTVDKSISTAYMELSRLRSDDTAVYYCAREGIYWWGQGTTVTVSSASTKGPSVFPLAPSSKSTSGGTAALGCLVEDYFPEPVTVSWNSGALTSGVHTFPAVLQSSGLYSLSSVVTVPSSSLGTQTYICNVNHKPSNTKVDEKV[… human IgG1 Fc with changes …]GGGGSGGGGSGGGGSGGGGSEIVLTQSPATLSLSPGERATLSCRASESVDNYGLSFINWFQQKPGQAPRLLIYGTSNRGSGIPARFSGSGSGTDFTLTISSLEPEDFAVYFCQQSNEVPYTFGGGTKVEIKSSASTKGPSVFPLAPSSKSTSGGTAALGCLVKDYFPEPVTVSWNSGALTSGVHTFPAVLQSSGLYSLSSVVTVPSSSLGTQTYICNVNHKPSNTKVDKKVEPKSC
heavy 2: QVQLVQSGAEVKKPGASVKVSCKASGYSFTGYYIHWVRQAPGQSLEWMGRVIPNAGGTSYNQKFKGRVTLTVDKSISTAYMELSRLRSDDTAVYYCAREGIYWWGQGTTVTVSSASTKGPSVFPLAPSSKSTSGGTAALGCLVEDYFPEPVTVSWNSGALTSGVHTFPAVLQSSGLYSLSSVVTVPSSSLGTQTYICNVNHKPSNTKVDEKVEPKSCDGGGGSGGGGSQVQLVQSGAEVKKPGASVKVSCKASGYSFTGYYIHWVRQAPGQSLEWMGRVIPNAGGTSYNQKFKGRVTLTVDKSISTAYMELSRLRSDDTAVYYCAREGIYWWGQGTTVTVSSASTKGPSVFPLAPSSKSTSGGTAALGCLVEDYFPEPVTVSWNSGALTSGVHTFPAVLQSSGLYSLSSVVTVPSSSLGTQTYICNVNHKPSNTKVDEKVEPKSCDKTHTCPPCPAPEAAGGPSVFLFPPKPKDTLMISRTPEVTCVVVDVSHEDPEVKFNWYVDGVEVHNAKTKPREEQYNSTYRVVSVLTVLHQDWLNGKEYKCKVSNKALGAPIEKTISKAKGQPREPQVCTLPPSRDELTKNQVSLSCAVKGFYPSDIAVEWESNGQPENNYKTTPPVLDSDGSFFLVSKLTVDKSRWQQGNVFSCSVMHEALHNHYTQKSLSLSPG
With B1, the EC50 (commonly the concentration needed to bring the measured effect to its halfway point) in assay [1] was determined as 0.036 nM; in assay [2], 7.52 nM.

B2: P1AE2895, CD40 (P1AE0817) x FAP (4B9) (4+1) C-terminal crossfab fusion (bispecific antibody, human IgG1, kappa)
light 1: EIVLTQSPGTLSLSPGERATLSCRASQSVTSSYLAWYQQKPGQAPRLLINVGSRRATGIPDRFSGSGSGTDFTLTISRLEPEDFAVYYCQQGIMLPPTFGQGTKVEIKSSASTKGPSVFPLAPSSKSTSGGTAALGCLVKDYFPEPVTVSWNSGALTSGVHTFPAVLQSSGLYSLSSVVTVPSSSLGTQTYICNVNHKPSNTKVDKKVEPKSC
light 2: DIVMTQTPLSLSVTPGQPASISCRSSQSLVHSNGNTFLHWYLQKPGQSPQLLIYTVSNRFSGVPDRFSGSGSGTDFTLKISRVEAEDVGVYFCSQTTHVPWTFGGGTKVEIKRTVAAPSVFIFPPSDEQLKSGTASVVCLLNNFYPREAKVQWKVDNALQSGNSQESVTEQDSKDSTYSLSSTLTLSKADYEKHKVYACEVTHQGLSSPVTKSFNRGEC
heavy 1: QVQLVQSGAEVKKPGASVKVSCKASGYSFTGYYIHWVRQAPGQSLEWMGRVIPNAGGTSYNQKFKGRVTLTVDKSISTAYMELSRLRSDDTAVYYCAREGIYWWGQGTTVTVSSASTKGPSVFPLAPSSKSTSGGTAALGCLVKDYFPEPVTVSWNSGALTSGVHTFPAVLQSSGLYSLSSVVTVPSSSLGTQTYICNVNHKPSNTKVDKKVEPKSCDGGGGSGGGGSQVQLVQSGAEVKKPGASVKVSCKASGYSFTGYYIHWVRQAPGQSLEWMGRVIPNAGGTSYNQKFKGRVTLTVDKSISTAYMELSRLRSDDTAVYYCAREGIYWWGQGTTVTVSSASTKGPSVFPLAPSSKSTSGGTAALGCLVKDYFPEPVTVSWNSGALTSGVHTFPAVLQSSGLYSLSSVVTVPSSSLGTQTYICNVNHKPSNTKVDKKV[… human IgG1 Fc with changes …]GGGGSGGGGSGGGGSGGGGSEVQLLESGGGLVQPGGSLRLSCAASGFTFSSYAMSWVRQAPGKGLEWVSAIIGSGASTYYADSVKGRFTISRDNSKNTLYLQMNSLRAEDTAVYYCAKGWFGGFNYWGQGTLVTVSSASVAAPSVFIFPPSDEQLKSGTASVVCLLNNFYPREAKVQWKVDNALQSGNSQESVTEQDSKDSTYSLSSTLTLSKADYEKHKVYACEVTHQGLSSPVTKSFNRGEC
heavy 2: QVQLVQSGAEVKKPGASVKVSCKASGYSFTGYYIHWVRQAPGQSLEWMGRVIPNAGGTSYNQKFKGRVTLTVDKSISTAYMELSRLRSDDTAVYYCAREGIYWWGQGTTVTVSSASTKGPSVFPLAPSSKSTSGGTAALGCLVKDYFPEPVTVSWNSGALTSGVHTFPAVLQSSGLYSLSSVVTVPSSSLGTQTYICNVNHKPSNTKVDKKVEPKSCDGGGGSGGGGSQVQLVQSGAEVKKPGASVKVSCKASGYSFTGYYIHWVRQAPGQSLEWMGRVIPNAGGTSYNQKFKGRVTLTVDKSISTAYMELSRLRSDDTAVYYCAREGIYWWGQGTTVTVSSASTKGPSVFPLAPSSKSTSGGTAALGCLVKDYFPEPVTVSWNSGALTSGVHTFPAVLQSSGLYSLSSVVTVPSSSLGTQTYICNVNHKPSNTKVDKKVEPKSCDKTHTCPPCPAPEAAGGPSVFLFPPKPKDTLMISRTPEVTCVVVDVSHEDPEVKFNWYVDGVEVHNAKTKPREEQYNSTYRVVSVLTVLHQDWLNGKEYKCKVSNKALGAPIEKTISKAKGQPREPQVCTLPPSRDELTKNQVSLSCAVKGFYPSDIAVEWESNGQPENNYKTTPPVLDSDGSFFLVSKLTVDKSRWQQGNVFSCSVMHEALHNHYTQKSLSLSPG
B2 displayed an EC50 in assay [1] of 0.049 nM.
